# According to PMC9357639 (Cancer Science, 2022):
# B1: STAT3 T622A, bacterially purified, phosphorylated at Y705 by His-JAK2 in vitro (with or without earl (natural protein)
# chain: not shown
# modifications: phosphotyrosine at 705 (JAK2-mediated, in vitro kinase assay)
# Molecular target: the molecule itself
# Experiment: SEC
protein,measurement,value
B1,binding result,binds
